# According to article PMC4336329 (PLoS ONE, 2015):
# Among all 310,000 compounds or so, about 14,000 (4.5%) showed an effect of 50% or more. Effects have a minus sign here. This is one part of the list.
# Target: human ether-à-go-go-related gene (hERG) potassium channel (human, UniProt Q12809)
# Assay: primary screen, population patch clamp on CHO cells stably expressing hERG
# 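Further: peak tail current of the secondary pulse compared with the same well before compound.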
# human ether-à-go-go-related gene (hERG) potassium channel, sequence (Q12809 whole entry, looked up): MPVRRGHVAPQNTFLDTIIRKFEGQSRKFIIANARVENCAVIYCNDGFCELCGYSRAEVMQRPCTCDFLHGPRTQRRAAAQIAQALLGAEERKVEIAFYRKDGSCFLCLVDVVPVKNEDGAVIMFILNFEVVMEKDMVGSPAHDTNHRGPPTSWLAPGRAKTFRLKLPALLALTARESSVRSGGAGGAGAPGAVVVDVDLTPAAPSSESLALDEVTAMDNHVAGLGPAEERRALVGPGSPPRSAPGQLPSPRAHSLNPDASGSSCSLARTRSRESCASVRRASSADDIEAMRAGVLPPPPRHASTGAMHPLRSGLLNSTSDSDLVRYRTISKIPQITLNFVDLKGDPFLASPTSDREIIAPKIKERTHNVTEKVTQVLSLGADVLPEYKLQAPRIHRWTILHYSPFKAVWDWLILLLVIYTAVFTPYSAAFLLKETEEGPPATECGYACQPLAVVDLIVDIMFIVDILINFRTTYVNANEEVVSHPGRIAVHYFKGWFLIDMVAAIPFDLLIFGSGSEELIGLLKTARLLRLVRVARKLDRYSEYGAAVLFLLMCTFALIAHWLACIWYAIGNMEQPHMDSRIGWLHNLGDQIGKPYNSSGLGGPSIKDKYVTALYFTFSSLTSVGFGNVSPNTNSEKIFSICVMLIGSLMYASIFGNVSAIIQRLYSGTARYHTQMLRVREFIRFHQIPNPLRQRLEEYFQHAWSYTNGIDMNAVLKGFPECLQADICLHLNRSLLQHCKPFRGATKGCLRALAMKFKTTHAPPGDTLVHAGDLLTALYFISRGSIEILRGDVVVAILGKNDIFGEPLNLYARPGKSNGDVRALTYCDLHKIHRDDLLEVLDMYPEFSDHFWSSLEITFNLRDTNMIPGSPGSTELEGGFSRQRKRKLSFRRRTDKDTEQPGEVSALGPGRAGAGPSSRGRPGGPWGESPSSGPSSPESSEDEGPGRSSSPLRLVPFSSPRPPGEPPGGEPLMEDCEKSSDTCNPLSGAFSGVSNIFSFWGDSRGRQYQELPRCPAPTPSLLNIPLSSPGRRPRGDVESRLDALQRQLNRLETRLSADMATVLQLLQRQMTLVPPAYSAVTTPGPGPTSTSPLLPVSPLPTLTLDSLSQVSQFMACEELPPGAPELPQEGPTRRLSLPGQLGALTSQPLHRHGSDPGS
row,Compound,"hERG current change (%, negative = inhibition) at 10uM [%]"
1,Fc1ccc(Nc2ccnc(Nc3ccc(F)cc3)n2)cc1,8.33
2,COc1ccc(C2C(C(=O)N3CCCCC3)c3ccccc3C(=O)N2C)cc1 (stereo not shown),-1.72
3,Cc1nnc(NCCc2ccccc2)[nH]c1=O,-18.8
4,O=C(Cc1ccccc1)N1CCN(C2CCCCCC2)CC1.O=C(O)C(=O)O,-19.2
5,CSc1nc(Cl)cc(Nc2ccccc2N)n1,-0.448
6,CC(C)(C)NC(=O)Cn1c(-c2nonc2N)nc2ccccc21,6.64
7,Cc1ccc(C(=O)c2c(NC(=O)c3ccncc3)sc3c2CCCC3)cc1,-3.98
8,COc1cccc(CNS(=O)(=O)c2cc3c(cc2C)n(C)c(=O)c(=O)n3C)c1,-8.04
9,O=C(CN1C(=O)NC2(CCCCCC2)C1=O)NCCc1ccccc1,1.14
10,COc1cccc(N2CCN(c3cnc4ccccc4n3)CC2)c1,-5.16
11,O=C(O)CCCC(=O)Nc1ccc(N2CCCC2)cc1,5.13
12,CCn1c(SCC(=O)N(C)c2c(N)n(Cc3ccccc3)c(=O)[nH]c2=O)nc2ccccc21,7.16
13,CC(=O)Nc1cccc(NC(=O)c2oc3ccccc3c2C)c1,-29.3
14,COC(=O)c1ccc(NC(=O)CNCc2ccncc2)cc1.O=C(O)C(=O)O,18.1
15,Oc1c(Br)cc(/C=N/NC(=S)NCc2ccco2)cc1Br,23.9
16,COCCSc1ccccc1C(=O)Nc1ccc(Cl)cn1,-10.3
17,Cc1cccc(NC(=O)C2CCN(S(=O)(=O)c3ccc4c(c3)NC(=O)CO4)CC2)c1C,14
18,CCN(CC)CCNC(=O)c1ccc(NC(=O)c2ccccc2-c2ccc(C(F)(F)F)cc2)cc1,-24.2
19,O=C(NCC1OCCc2ccccc21)C1COc2ccccc2O1 (stereo not shown),2.5
20,CCC(=O)c1c(O)n(C2CCCCCC2)c(=O)[nH]c1=O,15.8
21,Fc1ccc(CNCc2ccccc2Cl)cc1.O=C(O)C(=O)O,-5.05
22,CCOc1ccc(NC(=O)CN(C)C(=O)c2cn(-c3ccccc3)nc2-c2cccs2)cc1OCC,-0.539

row,Compound,"hERG current change (%, negative = inhibition) at 10uM [%]"
1,Cc1ccccc1-n1c(=O)cc(NCC2CCCO2)[nH]c1=O (stereo not shown),4.82
2,Brc1ccc(-c2csc3ncnc(-n4nnc5ccccc54)c23)cc1,-4.63
3,O=C(N/N=C/c1cc(Cl)ccc1O)c1cccnc1,15.6
4,CCCCCCCCCCOC(=O)Cn1c(COc2ccc(OC)cc2)[n+](C)c2ccccc21.[Cl-],-83.3
5,CCCCNC(=O)N(O)C1N(/N=C/c2ccccc2O)C(=S)SC1(C)C (stereo not shown),-0.0707
6,Cc1ccc(S(=O)(=O)N2CCN(Cc3ccco3)CC2)c(C)c1,-35.6
7,CCN(CC)CCCNC(=O)CCC(=O)Nc1ccc2nc(N3CCC(C)CC3)cc(C)c2c1,10
8,CCC(C)(C)n1nnnc1C(c1cc2ccc(OC)cc2[nH]c1=O)N1CCc2ccccc21 (stereo not shown),-1.92
9,Cc1ccc(NC(=O)CSc2nnc(-c3cccnc3)s2)cc1,-4.36
10,COc1ccc(OCc2ccc(C(=O)O)cc2)cc1,8.41
11,O=C(COc1ccc(Cl)cc1Cl)Nn1c(=S)[nH]c2ncccc2c1=O,-38.1
12,Cc1sc2ncnc(N3CCC(C(=O)NNC(=O)COc4ccccc4Cl)CC3)c2c1C,-38.6
13,COc1cccc(CNC(=O)CCC(=O)N2Cc3cccc(OC)c3Oc3ncccc32)c1OC,2.96
14,CC(C)N(C1=CC(=O)OC12CCCCC2)C(C)C,-0.582
15,O=C(Nc1cccc(-c2nc3ccccc3c(=O)o2)c1)c1ccccc1,13.4
16,CC1=C(C(=O)OC(C)C)[C@]2(C(=O)N(CC(N)=O)c3ccccc32)C(C#N)=C(N)O1,10.7
17,COc1ccc(C(=O)NCC(=O)OCC(=O)c2ccc3c(c2)NC(=O)CO3)cc1OC,-22
18,Cc1ccc(C(c2sc3nc(C)nn3c2O)N2CCOCC2)cc1 (stereo not shown),9.56
19,CCOc1ccc(OCc2ccc(C(=O)N/N=C(\C)c3ccccn3)cc2)cc1,6.67
20,O=C(Nc1ccc(F)cc1)N1CCN(CCc2ccccc2)CC1,-52.3
21,Oc1ccc(C(=S)N2CCCC2)cc1,14.4
22,CCNc1c([N+](=O)[O-])c(=O)n(CC)c2ccccc12,-5.73

row,Compound,"hERG current change (%, negative = inhibition) at 10uM [%]"
1,CC(NC(=O)c1cn(C)c2ccc(S(=O)(=O)N3CCCC3)cc2c1=O)c1ccc2c(c1)OCCO2 (stereo not shown),11.3
2,COc1cc(C(C)=O)ccc1OCC(=O)NCC1(N2CCCCC2)CCCCC1,-11.4
3,CCC1(c2ccccc2)NC(=O)N(CC(=O)Nc2ccc(S(=O)(=O)N3CC(C)CC(C)C3)cc2)C1=O (stereo not shown),15.2
4,Cc1ccccc1NC(=O)COc1nsnc1N1CCOCC1,5.72
5,Cc1nn(-c2ccc(F)cc2)c(Cl)c1/C=C/C(=O)N1CCNC(=O)C1,7.33
6,CCc1cccc(CC)c1NC(=O)CN1CCN(c2ccccc2)CC1.Cl,-15.7
7,COc1cccc(NC(=O)CN(C)C(=O)c2cccc(S(=O)(=O)N3CCN(c4ccccc4)CC3)c2)c1,4.56
8,O=C(CN1C(=O)c2ccccc2S1(=O)=O)N1CCN(Cc2ccc3c(c2)OCO3)CC1,-12.8
9,CC(C)(C)c1ccc(C(=O)c2c[nH]c(C(=O)O)c2)cc1,8.49
10,CCOc1ccc(CNC(=O)C(=O)c2cn(CC(=O)N3CCOCC3)c3ccccc23)cc1OC,17.1
11,O=c1nc2ccccc2c2n1CC(CN1CCN(c3ccccc3F)CC1)N2 (stereo not shown),-50.3
12,O=C(CSc1ncccn1)NC1CCS(=O)(=O)C1 (stereo not shown),4.98
13,COc1ccc(-c2noc(CCC(=O)N3CCN(c4cc(C)ccc4C)CC3)n2)cc1,-4.34
14,CC(C)[C@H](NC(=O)c1ccccc1)C(=O)OCC(=O)N1CC2(C)CC1CC(C)(C)C2 (stereo partly shown),-17.2
15,Cc1ccc(C(=O)NCCSc2snnc2C)cc1,17.6
16,Cc1cc(C)cc(C(=O)NCC(=O)OCC(=O)NCc2ccco2)c1,22.8
17,O=C(Nc1ccccc1N1CCN(c2ccccc2)CC1)C12CC3CC(CC(C3)C1)C2,-3.41
18,O=C(NCc1ccccc1)c1nc2ccccc2s1,-26.3
19,COc1ccc(/C(N)=N/OC(=O)c2cccc([N+](=O)[O-])c2)cc1,-2.06
20,c1cncc(Nc2nc(-c3cccnc3)cs2)c1,1.98
21,CC1C(=O)N2CCCc3cc(NC(=O)COc4ccccc4)cc1c32 (stereo not shown),-22.4
22,CCOc1ccccc1OCC(=O)NNC(=O)Cn1cnc2c1c(=O)n(C)c(=O)n2C,23.4

row,Compound,"hERG current change (%, negative = inhibition) at 10uM [%]"
1,Cc1cc(C)cc(NC(=O)CSc2nnc(CNC(=O)c3ccco3)o2)c1,-19.9
2,Cc1ccc(C(=O)NCc2ccco2)cc1S(=O)(=O)Nc1cccc(Cl)c1,-38.3
3,CCNC(=O)NC(=O)C(C)OC(=O)c1oc2ccc(OC)cc2c1C (stereo not shown),11.8
4,CC1=C(C)CC(C(=O)Nc2nc(-c3ccc(F)cc3)c(C)s2)C(C(=O)O)C1 (stereo not shown),19.1
5,O=C(NCCc1ccccc1)[C@@H]1CC=C[C@@H]2CCN(C3CCCCC3)C(=O)[C@@H]21,10.5
6,O=C(Nc1ccccc1)/C(=C/c1ccc2c(c1)OCO2)NC(=O)c1ccco1,7.14
7,CS(=O)(=O)c1ccc(Cl)c(NC(=O)COC(=O)/C=C/c2cnc3ccccc3n2)c1,14.6
8,O=C(CSc1nnc(NC2CCCCC2)s1)N1CCOCC1,2.99
9,COc1ccc(-c2nn(C)c3sc(C(=O)N4CCOCC4)cc23)cc1OC,-2.95
10,COc1ccc(Cl)cc1NC(=O)C1CCN(C(=O)Nc2ccccc2)CC1,-4.23
11,C=CCn1c(SCC(=O)N2c3ccccc3Sc3ccccc32)nnc1-c1ccco1,-10.3
12,O=S(=O)(NCC(c1cccnc1)N1CCc2ccccc2C1)c1ccccc1 (stereo not shown),10.3
13,Cc1ccc(CNc2nc(-c3cccs3)nc3ccccc23)cc1,12.1
14,O=C(NCCO)/C(=C\c1ccc([N+](=O)[O-])o1)NC(=O)c1ccccc1,1.55
15,COc1ccc(-c2cc(-c3ccccc3)c(C#N)c(S(C)=O)n2)cc1 (stereo not shown),-6.13
16,Cc1cc(OC(C)C(=O)NC(Cc2c[nH]c3ccc(O)cc23)C(=O)O)c2c(C)c(C)c(=O)oc2c1 (stereo not shown),-16.2
17,O=C(c1cc(Cl)ccc1OCc1ccccc1)N1CCOCC1,-8.81
18,CCCCCn1c(N)c(-c2nc3ccccc3o2)c2c([N+](=O)[O-])nn(C)c(=O)c21,22.8
19,Cc1cc(C(F)F)n2nc(C(=O)Nc3ccccc3F)nc2n1,14.5
